# The list shows a part of the results.
# Tested on: PfSIP2 AP2 domain 1 (GST-tagged)
# Assay: gcPBM binding intensity (ln(normalized median fluorescence intensity)); higher = stronger DNA binding
# Summary of the method: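 The highest Masliner-normalised natural-log median intensity across replicate spots of either probe orientation is reported as binding intensity. GST-tagged P. falciparum DNA-binding domains expressed in E. coli were applied for 1 h to an Agilent 4 × 180k array of primer-extended double-stranded 36-bp intergenic genomic probes plus negative controls, and bound protein was detected with Alexa488 anti-GST antibody and scanned at 488 nm.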
row,Sequence,gcPBM binding intensity (ln)
1,GGAATATTTATACATACACACATATATTTATTTATA [CACACA_site6883],7.19
2,ATGTAGACATAATGGGGTACAAAAAAAAAAAAAAAA [XGTACX_site881],7.21
3,ATATTACCCATATATGCACACATTGTAGTTATTTAT [CACACA_site2636],8.65
4,TTTTGTAGCAAAAAATAGGAAAAAAAAAAATTAAAT [GTGCAC_negctrl_site8],6.81
5,ATATAATTACCATATGGTACACACATATATATATGT [XGTACX_site7393],7.25
6,TTAAGATACAAAAAAGTGCATATTTTTTAACAAAAA,9.95
7,AAAAAAAAAAAAAAAACACACATAAATAGCTCAAAT [CACACA_site3973],7.67
8,CACATACCCATACAAACACACATTATATATATATAT [CACACA_site4965],9.25
9,ATATCGTGTGCATTAACACACATTTATTTGAATAAA [CACACA_site7162],7.65
10,GATATATAAATAGATACACACATACATACATACATA [CACACA_site6260],7.18
11,TACGATTAAAAAAAATGTACAGATTTTTATAGAATA [XGTACX_site6561],6.9
12,ACAAATAAAAATATTACACACACTATTCTAGTGATA [CACACA_site6812],6.91
13,GACAAATTATTGTGTACACAATATTATTATATATAC [CACACA_site6020],7.49
14,CTTATGTTTTTTAAGTGTACATATTATACGTATTAT [XGTACX_site1176],7.15
15,TAAATATATATAATTACACACTTTTCTATAATATGA [CACACA_site711],6.87
16,TTAAGATATATAAAGAGTACACATAAGAGTAATGCT [XGTACX_site58],6.88
17,TATAATACATTATATTGTACTATATTATAATAAATT [XGTACX_site5934],7.04
18,ATCATTTAAACAATATGTACTCATTGTAGATATGGT [XGTACX_site5088],7.17
19,TGAATAAAATATTATACACACATATGTATTTAACAT [CACACA_site4694],6.94

row,Sequence,gcPBM binding intensity (ln)
1,AATGGGATCATGGTATGTACTTACACAAATGAATTA [XGTACX_site5389],6.82
2,TTGTATTTACTATACACACACATACATACATACATA [CACACA_site4603],7.07
3,CGTTACACAAAAATATGTACATATATACATATATAT [XGTACX_site4631],7.3
4,TATAAATATAAATACTGTACATTATATTATATAATA [XGTACX_site2480],6.95
5,TATTCCCCCAAACACACACACACACCCACATACCAC [CACACA_site2304],7.83
6,TAAAAATAATATTAATGTACATTACATATTAATATA [XGTACX_site1019],6.83
7,ATATATATATATATGTGTACATATTAGTGATATAAT [XGTACX_site7161],9.14
8,AATGCGCATTTTTTTTTTTTTTTTTTTTTTTTTTTT [XGTACX_negctrl_site258],8.83
9,ATTCTATATGTTACATAAACCTATATTTTTTTTTTT [CACACA_negctrl_site860],6.84
10,ATAAAGCCATACAATACACACATTTTACATGTCGGT [CACACA_site3265],6.87
11,TAAGCCACCATATTTACACACACATCAAAATGTATT [CACACA_site1815],7.03
12,GAAAAAAGAAATTTATGTACATACATATATATATAT [XGTACX_site7888],9
13,ATATGTAAAATATGGGGTACGAAGGTAGGTAGGTAA [XGTACX_site1392],7.42
14,TAATATTGACTATATACACACATATAAATATAAATA [CACACA_site6414],6.96
15,TATATATATATATATACATGCATCATTGTTCACCTT [TGCATGCA_site177],9.31
16,TTTTTTTTTTAATTAACACACATAAATATAAATATA [CACACA_site7527],6.89
17,AAAAAAAAAAAAAAAAGTACATATGCTCAAGAGATG [XGTACX_site3783],7.69
18,CATTCAAAGAAAAACAGTACGTGTAGCAAAAGGCCT [XGTACX_site266],6.92
19,TAAATAATATAATTATGTACGTATTTCTTTATTTTA [XGTACX_site8410],6.89

row,Sequence,gcPBM binding intensity (ln)
1,GCTGAAAATAAATGAAGTACACAAGTAATATATATA [XGTACX_site6205],7.8
2,TCTTATAAAGGTAATTGTACATATTTATAATTTCTT [XGTACX_site4847],6.76
3,GTGAAAGGAAAAGTTGAACACACAAAGTAAACTATA [CACACA_site9178],6.74
4,AATAATATTTAATACGCACACAATAATAATATAAAA [CACACA_site1763],7.23
5,CACACGCACGAACACACACACATATAAATATAAATA [CACACA_site6299],7.56
6,ATATATTATTATACATGTACATATATAGATATATAT [XGTACX_site4358],7.08
7,AACAATAATTTTGAATGTACATATAAATATTTTTAT [XGTACX_site5501],7.05
8,ATATACATATAGGATGCACACATAATTCAAATACAA [CACACA_site8120],8.22
9,AAAAAAAAGAATAGCACACACACATATATAAATATA [CACACA_site630],6.88
10,GTTAATTCTATGAATTGTACTTAAATATAATTATAT [XGTACX_site2785],7.02
11,ATAAATACTAAAAATGAAATATAGAAAATAGCAATA [CACACA_negctrl_site501],6.89
12,ACAGTTAAAACAATAACACACAAAGAAAAAAAAAAA [CACACA_site737],6.97
13,CAAAATAAAAATAACACACACATTTATATAAATACA [CACACA_site4790],6.99
14,TATAATATATTATATACACACATTATAAAATACCCA [CACACA_site4858],6.96
15,TATATTTTTATTGAACGTACAAAAAGTCGAAAACAG [XGTACX_site3967],7.61
16,TTTAAATACAGACATACACACATACACGCACATATA [CACACA_site6400],7.17
17,AGGTAGAAATTGTTAAAAAATCATACATATTATATA [CACACA_negctrl_site622],6.9
18,TATATGTATCCATTATGTACATAATAGTAATATAAT [XGTACX_site4008],7.06
19,TATATTTATTTTCTGTGTACACATATGTTGTGTATT [XGTACX_site7640],7.27

# — the supplement of paper PMC11417369
